# In the supplement of paper PMC8728848:
# Some of the results follow.
# Experiments:
# Experiment in all cases: glycan array binding signal (z-score within array); higher = stronger binding
# Conditions in all cases: glycan notation: IUPAC condensed, linker removed
# Neu5Ac(a2-3)Gal(b1-4)Glc = molecular target: Neu5Ac(a2-3)Gal(b1-4)Glc
# Procedure, shortened: (§1)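 The binding signal is a Z-score computed within each array. Data were drawn from 3228 arrays in the Consortium for Functional Glycomics database, restricted to those with a known protein sequence. Scores were averaged over arrays of the same protein sequence at different concentrations or buffers, and over linkers, and negative values can be taken as non-binding.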
# [1] = molecular target: Neu5Ac(a2-3)Gal(b1-4)GlcNAc
# Procedure, shortened: as §1
# [2] = molecular target: Neu5Ac(a2-3)Gal(b1-4)GlcNAc(b1-2)Man(a1-3)[GlcNAc(b1-2)Man(b1-4)GlcNAc(b1-2)Man(a1-6)]Man(b1-4)GlcNAc(b1-4)GlcNAc
# Procedure, shortened: as §1
# [3] = molecular target: Neu5Ac(a2-3)Gal(b1-4)GlcNAc(b1-2)Man(a1-3)[Neu5Ac(a2-6)Gal(b1-4)GlcNAc(b1-2)Man(a1-6)]Man(b1-4)GlcNAc(b1-4)GlcNAc
# Procedure, shortened: as §1
# [4] = molecular target: Neu5Ac(a2-3)Gal(b1-4)GlcNAc(b1-3)Gal
# Procedure, shortened: as §1
# [5] = molecular target: Neu5Ac(a2-3)Gal(b1-4)GlcNAc(b1-3)Gal(b1-3)GlcNAc
# Procedure, shortened: as §1
# [6] = molecular target: Neu5Ac(a2-3)Gal(b1-4)GlcNAc(b1-3)Gal(b1-4)GlcNAc
# Procedure, shortened: as §1
# [7] = molecular target: Neu5Ac(a2-3)Gal(b1-4)GlcNAc(b1-3)Gal(b1-4)GlcNAc(b1-3)Gal(b1-4)GlcNAc
# Procedure, shortened: as §1
# [8] = molecular target: Neu5Ac(a2-3)Gal(b1-4)GlcNAc(b1-3)Gal(b1-4)[Fuc(a1-3)]GlcNAc
# Procedure, shortened: as §1
# [9] = molecular target: Neu5Ac(a2-3)Gal(b1-4)GlcNAc(b1-3)GalNAc
# Procedure, shortened: as §1
# [10] = molecular target: Neu5Ac(a2-3)Gal(b1-4)GlcNAc(b1-6)[Gal(b1-3)]GalNAc
# Procedure, shortened: as §1
# [11] = molecular target: Neu5Ac(a2-3)Gal(b1-4)GlcNAc(b1-6)[Neu5Ac(a2-3)Gal(b1-3)]GalNAc
# Procedure, shortened: as §1
# [12] = molecular target: Neu5Ac(a2-3)Gal(b1-4)GlcNAc6S
# Procedure, shortened: as §1
# [13] = molecular target: Neu5Ac(a2-3)Gal(b1-4)[Fuc(a1-3)]GlcNAc
# Procedure, shortened: as §1
# [14] = molecular target: Neu5Ac(a2-3)Gal(b1-4)[Fuc(a1-3)]GlcNAc(b1-3)Gal
# Procedure, shortened: as §1
# [15] = molecular target: Neu5Ac(a2-3)Gal(b1-4)[Fuc(a1-3)]GlcNAc(b1-3)Gal(b1-4)GlcNAc
# Procedure, shortened: as §1
# [16] = molecular target: Neu5Ac(a2-3)Gal(b1-4)[Fuc(a1-3)]GlcNAc(b1-3)Gal(b1-4)[Fuc(a1-3)]GlcNAc(b1-3)Gal(b1-4)[Fuc(a1-3)]GlcNAc
# Procedure, shortened: as §1
# [17] = molecular target: Neu5Ac(a2-3)Gal(b1-4)[Fuc(a1-3)]GlcNAc(b1-3)GalNAc
# Procedure, shortened: as §1
# [18] = molecular target: Neu5Ac(a2-3)Gal(b1-4)[Fuc(a1-3)]GlcNAc(b1-6)[Gal(b1-3)]GalNAc
# Procedure, shortened: as §1
# [19] = molecular target: Neu5Ac(a2-3)Gal(b1-4)[Fuc(a1-3)]GlcNAc(b1-6)[Neu5Ac(a2-3)Gal(b1-3)]GalNAc
# Procedure, shortened: as §1
# [20] = molecular target: Neu5Ac(a2-3)Gal(b1-4)[Fuc(a1-3)]GlcNAc6S
# Procedure, shortened: as §1
# [21] = molecular target: Neu5Ac(a2-3)Gal6S(b1-4)GlcNAc
# Procedure, shortened: as §1
# [22] = molecular target: Neu5Ac(a2-3)Gal6S(b1-4)[Fuc(a1-3)]GlcNAc
# Procedure, shortened: as §1
# Neu5Ac(a2-3)GalNAc = molecular target: Neu5Ac(a2-3)GalNAc
# Procedure, shortened: as §1
# [23] = molecular target: Neu5Ac(a2-3)GalNAc(b1-4)GlcNAc
# Procedure, shortened: as §1
# [24] = molecular target: Neu5Ac(a2-3)[GalNAc(b1-4)]Gal(b1-4)Glc
# Procedure, shortened: as §1
# [25] = molecular target: Neu5Ac(a2-3)[GalNAc(b1-4)]Gal(b1-4)GlcNAc
# Procedure, shortened: as §1
# [26] = molecular target: Neu5Ac(a2-3)[GalNAc(b1-4)]Gal(b1-4)GlcNAc(b1-3)GalNAc
# Procedure, shortened: as §1
# [27] = molecular target: Neu5Ac(a2-3)[Neu5Ac(a2-6)]GalNAc
# Procedure, shortened: as §1
# Neu5Ac(a2-6)Gal = molecular target: Neu5Ac(a2-6)Gal
# Procedure, shortened: as §1
# [28] = molecular target: Neu5Ac(a2-6)Gal(b1-3)GlcNAc(b1-3)[Gal(b1-4)GlcNAc(b1-6)]Gal(b1-4)Glc
# Procedure, shortened: as §1
# Neu5Ac(a2-6)Gal(b1-4)Glc = molecular target: Neu5Ac(a2-6)Gal(b1-4)Glc
# Procedure, shortened: as §1
# [29] = molecular target: Neu5Ac(a2-6)Gal(b1-4)GlcNAc
# Procedure, shortened: as §1
# [30] = molecular target: Neu5Ac(a2-6)Gal(b1-4)GlcNAc(b1-2)Man(a1-3)Man(b1-4)GlcNAc(b1-4)GlcNAc
# Procedure, shortened: as §1
# [31] = molecular target: Neu5Ac(a2-6)Gal(b1-4)GlcNAc(b1-2)Man(a1-3)[Gal(b1-4)GlcNAc(b1-2)Man(a1-6)]Man(b1-4)GlcNAc(b1-4)GlcNAc
# Procedure, shortened: as §1
# [32] = molecular target: Neu5Ac(a2-6)Gal(b1-4)GlcNAc(b1-2)Man(a1-3)[GlcNAc(b1-2)Man(a1-6)]Man(b1-4)GlcNAc(b1-4)GlcNAc
# Procedure, shortened: as §1
# [33] = molecular target: Neu5Ac(a2-6)Gal(b1-4)GlcNAc(b1-2)Man(a1-3)[GlcNAc(b1-2)Man(b1-4)GlcNAc(b1-2)Man(a1-6)]Man(b1-4)GlcNAc(b1-4)GlcNAc
# Procedure, shortened: as §1
binder,measurement,setting,value
Gal 3 (Canis lupus) (protein) MADSFSLNDALSGSGNPNPQGWPGPWGNQPAGAGGYPGASYPGAYPGQAPPGGYPGQAPPGGYPGQAPPGGYPGQAPPGGYPGQAPPGGYPGQAPPGTYPGPTAPAYPGPTAPGTQPGQPSGPGAYPPPGQPSAPGAYPAAGPFGIPAGPLTVPYDLPLPGGVKPRMLITILGTVRPSANRLALDFKRGNDVAFHFNPRFNEDNKRVIVCNTKLDNIWGKEERQAAFPFESGKPFKIQVLVESDHFKVAVNDAHLLQYNHRMKNLPEISKLGISGDIDLTSASYAMI,glycan array binding signal (z-score),Neu5Ac(a2-3)Gal(b1-4)Glc,-0.247
same,glycan array binding signal (z-score),[1],-0.162
same,glycan array binding signal (z-score),[2],0.428
same,glycan array binding signal (z-score),[3],0.264
same,glycan array binding signal (z-score),[4],-0.155
same,glycan array binding signal (z-score),[5],0.001
same,glycan array binding signal (z-score),[6],0.679
same,glycan array binding signal (z-score),[7],1.2
same,glycan array binding signal (z-score),[8],-0.247
same,glycan array binding signal (z-score),[9],-0.205
same,glycan array binding signal (z-score),[10],-0.247
same,glycan array binding signal (z-score),[11],-0.233
same,glycan array binding signal (z-score),[12],0.203
same,glycan array binding signal (z-score),[13],-0.252
same,glycan array binding signal (z-score),[14],-0.265
same,glycan array binding signal (z-score),[15],-0.137
same,glycan array binding signal (z-score),[16],-0.252
same,glycan array binding signal (z-score),[17],-0.103
same,glycan array binding signal (z-score),[18],-0.16
same,glycan array binding signal (z-score),[19],-0.209
same,glycan array binding signal (z-score),[20],-0.258
same,glycan array binding signal (z-score),[21],-0.268
same,glycan array binding signal (z-score),[22],-0.259
same,glycan array binding signal (z-score),Neu5Ac(a2-3)GalNAc,-0.269
same,glycan array binding signal (z-score),[23],-0.195
same,glycan array binding signal (z-score),[24],-0.259
same,glycan array binding signal (z-score),[25],-0.251
same,glycan array binding signal (z-score),[26],-0.26
same,glycan array binding signal (z-score),[27],-0.261
same,glycan array binding signal (z-score),Neu5Ac(a2-6)Gal,-0.253
same,glycan array binding signal (z-score),[28],-0.158
same,glycan array binding signal (z-score),Neu5Ac(a2-6)Gal(b1-4)Glc,-0.246
same,glycan array binding signal (z-score),[29],-0.268
same,glycan array binding signal (z-score),[30],-0.258
same,glycan array binding signal (z-score),[31],-0.259
same,glycan array binding signal (z-score),[32],-0.235
same,glycan array binding signal (z-score),[33],0.061
